Source: the supplement of paper PMC4166925
± gives the standard deviation of the averaged measurements. Whole data set: some 33,000 sequences, median “E-score (dimensionless, -0.5 to 0.5)” near -0.049, cut for the highest 2% near 0.37. The list shows a part of the results.

Tested on: T1, PmTbr T-box DNA-binding domain (GST fusion)
T1 sequence: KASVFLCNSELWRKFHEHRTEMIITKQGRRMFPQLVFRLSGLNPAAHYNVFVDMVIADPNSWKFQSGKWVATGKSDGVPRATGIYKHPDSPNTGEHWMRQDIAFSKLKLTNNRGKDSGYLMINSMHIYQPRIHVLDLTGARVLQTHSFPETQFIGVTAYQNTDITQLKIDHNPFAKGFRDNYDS
Experiment: PBM E-score of 8-mer (E-score (dimensionless, -0.5 to 0.5)); Tbr is Tbrain of the sea star Patiria miniata (Pm) or the sea urchin Strongylocentrotus purpuratus (Sp); higher = stronger binding preference; most listed sequences are background and not binding sites
Conditions: the construct has about 5 more residues each side
Method in brief: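 GST-fused Tbr T-box DNA-binding domains (the whole T-box plus about five flanking residues) were expressed in BL21 E. coli at 20 °C and purified by glutathione affinity chromatography. Universal Agilent oligonucleotide arrays were made double-stranded by primer extension, incubated with 200 nM protein in PBS (pH 7.5), then scanned and quantified. Every ungapped 8-mer was scored from probe intensities. The Universal PBM Analysis Suite gave each word an enrichment E-score, averaged over duplicate arrays.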

Sequence	PBM E-score of 8-mer
AATCGACT	-0.225 ± 0.022
CCTAGCAA	0.128 ± 0.069
CCTCGCTC	-0.00398 ± 0.058
TGGTTCAA	-0.06 ± 0.043
ACGTGACT	0.0526 ± 0.086
GACACGAC	0.154 ± 0.017
CGACCGCA	0.113 ± 0.022
AATGACTA	-0.103 ± 0.031
AAGATGAT	0.0937 ± 0.069
AGCTGTAG	-0.152 ± 0.02
ATGTGGGG	-0.0613 ± 0.0012
GCCCCCAA	-0.0898 ± 0.038
ACATTGGT	0.0988 ± 0.052
GGTAGAAC	-0.0423 ± 0.0042
GAGGTGGC	0.372 ± 0.036
ACTATAAG	0.000855 ± 0.077
TGGATTAA	-0.24 ± 0.021
CGCTGACA	0.273 ± 0.04
GGCTTGCA	-0.164 ± 0.0094
CTCCCGTA	-0.1898 ± 0.001
AGCCGAAA	-0.144 ± 0.044
GTGCTAAC	0.453 ± 0.0072

Sequence	PBM E-score of 8-mer
AATTTACC	-0.241 ± 0.011
ATCATATA	-0.078 ± 0.0047
CCACAATC	0.0332 ± 0.025
CTCCTATA	-0.0626 ± 0.15
GCACTTAC	0.178 ± 0.015
TAAGGACA	-0.164 ± 0.12
GAACTGAA	-0.228 ± 0.021
AGTCCGGC	-0.12 ± 0.06
CGTGCCTC	-0.0145 ± 0.032
CAGGAAGA	-0.0995 ± 0.043
ACGTCTGA	0.0062 ± 0.02
ACATAGAG	-0.023 ± 0.014
ACGGACCA	-0.341 ± 0.054
ACAATGCT	-0.00281 ± 0.021
CTGACACC	0.464 ± 0.0063
CAGGGTAG	0.0544 ± 0.044
AGTCTACG	-0.17 ± 0.11
AGCAACAC	0.383 ± 0.0078
GGTCCACC	-0.112 ± 0.0051
GTCCAGAC	-0.166 ± 0.033
AGCTATCA	0.0361 ± 0.064
GAAAGAAA	-0.0738 ± 0.058

Sequence	PBM E-score of 8-mer
GCTACTGA	0.0152 ± 0.032
CAGTGACC	0.033 ± 0.031
CCTGCAAA	0.0897 ± 0.028
GTAGGGTA	0.103 ± 0.048
AACGGTAA	-0.196 ± 0.017
ACTCCCGA	-0.177 ± 0.055
GTAAGCAC	0.00651 ± 0.056
TACAAGAA	-0.0614 ± 0.062
CCGGGCTA	-0.152 ± 0.051
CTAGTCAC	0.0813 ± 0.05
CACAGGTG	0.461 ± 0.0062
CTGCCCAA	0.0374 ± 0.083
GTTGACAA	0.3821 ± 0.0035
AACTACCC	-0.127 ± 0.0075
ATACGTGC	0.105 ± 0.039
AAGGTAGA	-0.17 ± 0.0066
AGATTTAA	0.0303 ± 0.02
AATCGTAG	-0.191 ± 0.024
CGTCCCAC	0.0104 ± 0.099
ACACGCGC	0.1959 ± 0.00046
CTAAGGCA	-0.047 ± 0.033
GAGTTGCA	0.0621 ± 0.02

Sequence	PBM E-score of 8-mer
CTCGAATA	-0.069 ± 0.011
CCGCACAA	0.0713 ± 0.018
ATGCACCG	-0.192 ± 0.0038
AAAGAATT	-0.166 ± 0.029
AAGTGGTC	-0.0639 ± 0.02
CTGCCATC	-0.00283 ± 0.029
GAGGTACC	0.0258 ± 0.047
ACCCGCTA	0.238 ± 0.011
CGACACCC	0.439 ± 0.022
AGAAGTAA	-0.0294 ± 0.013
ATTCTGTA	-0.126 ± 0.008
AAATTATG	-0.118 ± 0.079
CGCATCTA	0.0516 ± 0.011
CATGTCCC	-0.132 ± 0.1
CCGTTAAG	0.15 ± 0.027
GATCAGCC	-0.106 ± 0.034
TGCAATAA	-0.0778 ± 0.034
CGGTAGAA	-0.187 ± 0.086
ATTGACGG	0.113 ± 0.022
CGGATTGA	-0.148 ± 0.016
AACGTGAC	0.311 ± 0.0059
AGTTTGGG	-0.00971 ± 0.042

Sequence	PBM E-score of 8-mer
AGCGGATC	0.00512 ± 0.11
AATCAGTG	0.0944 ± 0.02
AATGATGC	-0.00771 ± 0.035
AGCAAAAC	0.106 ± 0.071
GCCCTTAC	0.00263 ± 0.059
ACCACCAG	-0.0603 ± 0.036
CTATAAGA	0.0506 ± 0.046
GCGGGCAC	0.118 ± 0.016
CAGGGGCC	-0.05 ± 0.046
ACTCGAGA	-0.0844 ± 0.022
GTCATCGA	0.152 ± 0.015
TCCGTCGA	-0.11 ± 0.028
CTCCTCAG	-0.0996 ± 0.015
TCGAAACA	0.0449 ± 0.078
CTTCCAGC	-0.0987 ± 0.018
TCCTGCGA	0.0825 ± 0.047
ATGCTTTA	-0.172 ± 0.03
GGCGCGCA	0.0945 ± 0.0047
CGGAGGTA	-0.188 ± 0.066
AGCTTTTC	0.0818 ± 0.069
AGAGGTCG	-0.0884 ± 0.068
